{"source": "the supplement of paper PMC9588766", "note": "Where a name gives a salt, the structure may show the parent alone. ± gives the standard deviation of the averaged measurements. Over roughly 2,000 compounds, “cell viability relative to DMSO control (compound alone)” has its median near 0.98; the lowest 2% begin near 0.23. The list shows a part of the results."}
{"system": "PDC-DUC18828", "test": "cell viability relative to DMSO control (compound alone) (fraction); PDC-DUC18828 is a patient-derived cholangiocarcinoma cell line; higher = less growth inhibition", "conditions": "1 µM; 72 h", "protocol": "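Selleck Bioactive library screen in the patient-derived FGFR2-G3BP2 fusion-positive ICC cell line PDC-DUC18828 (500 cells/well). Each compound was tested at 1 uM alone, in triplicate, for 72 h. Viability was read by CellTiter-Glo and normalised to plate DMSO controls.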"}
{"smiles": "O=S(=O)(c1cccc2cnccc12)N1CCCNCC1", "note": "[Fasudil (HA-1077) HCl]", "cell viability": "1.064 ± 0.0079"}
{"smiles": "COc1cc2nc(N3CCCN(C)CC3)nc(NC3CCN(Cc4ccccc4)CC3)c2cc1OC", "cell viability": "1.006 ± 0.0086"}
{"smiles": "Cc1c(C(=O)N2CCOc3ccc(-c4ccc(N)nc4)cc3C2)ccc(S(C)(=O)=O)c1F", "cell viability": "0.756 ± 0.069"}
{"smiles": "C[C@H](Nc1ncnc2nc[nH]c12)c1cc2cccc(Cl)c2c(=O)n1-c1ccccc1", "cell viability": "0.869 ± 0.019"}
{"smiles": "CC(C)(O)CC(=O)NCCn1ccc2ncnc(Nc3ccc(Oc4cccc(C(F)(F)F)c4)c(Cl)c3)c21", "cell viability": "1.02 ± 0.034"}
{"smiles": "CC(NCCc1ccc(O)cc1)C(O)c1ccc(O)cc1", "note": "(stereo not given) [Ritodrine HCl]", "cell viability": "0.964 ± 0.038"}
{"smiles": "CN1CCN(C(=O)c2cc3cc(Cl)ccc3[nH]2)CC1", "cell viability": "0.8855 ± 0.0061"}
{"smiles": "CC(=O)OCC(=O)[C@@]1(O)CC[C@H]2[C@@H]3CCC4=CC(=O)C=C[C@]4(C)[C@H]3[C@@H](O)C[C@@]21C", "note": "[Prednisolone Acetate]", "cell viability": "0.909 ± 0.044"}
{"smiles": "COc1ccc(CNc2nc(N3CCC[C@H]3CO)ncc2C(=O)NCc2ncccn2)cc1Cl", "note": "[Avanafil]", "cell viability": "0.976 ± 0.046"}
{"smiles": "COC(=O)N[C@H](C(=O)N1CC2(CC2)C[C@H]1c1nc(-c2ccc3c(c2)C(F)(F)c2cc(-c4ccc5[nH]c([C@@H]6[C@H]7CC[C@H](C7)N6C(=O)[C@@H](NC(=O)OC)C(C)C)nc5c4)ccc2-3)c[nH]1)C(C)C", "note": "[Ledipasvir (GS5885)]", "cell viability": "0.87 ± 0.044"}
{"smiles": "CC[C@H](c1ccc(O)cc1)[C@@H](CC)c1ccc(O)cc1", "note": "[Hexestrol]", "cell viability": "0.95 ± 0.018"}
{"smiles": "Cc1c(Nc2ncccc2C(=O)O)cccc1C(F)(F)F", "note": "[Flunixin Meglumin]", "cell viability": "1.06 ± 0.076"}
{"smiles": "N#CC1(c2ccc(NC(=O)c3cccnc3NCc3ccncc3)cc2)CCCC1", "note": "[Apatinib]", "cell viability": "1.051 ± 0.0082"}
{"smiles": "OC[C@@H](O)CN1CCN(c2ccccc2)CC1", "note": "[Levodropropizine]", "cell viability": "1.06 ± 0.082"}
{"smiles": "CC(ONC(=O)c1cc(C(F)(F)F)cc(C(F)(F)F)c1)C(=O)Nc1ccc(Cl)cc1", "note": "(stereo not given)", "cell viability": "0.949 ± 0.032"}
{"smiles": "NCCc1ccc(O)c(O)c1", "note": "[Dopamine HCl]", "cell viability": "0.513 ± 0.048"}
{"smiles": "Nc1nc(N)c2nc(-c3cccc(O)c3)c(-c3cccc(O)c3)nc2n1", "cell viability": "1.05 ± 0.071"}
{"smiles": "Cn1cnc2c(F)c(Nc3ccc(Br)cc3Cl)c(C(=O)NOCCO)cc21", "note": "[Selumetinib (AZD6244)]", "cell viability": "0.927 ± 0.054"}
{"smiles": "C[C@H](CS)C(=O)N1CCC[C@H]1C(=O)O", "note": "[Captopril]", "cell viability": "1.11 ± 0.056"}
{"smiles": "CN(Cc1cc(Br)cc(Br)c1N)C1CCCCC1", "note": "[Bromhexine HCl]", "cell viability": "1.06 ± 0.027"}
{"smiles": "O=C(c1ccccc1)c1ccc2nc(NC(=O)c3csc(C4CCN(c5ncnc6ccsc56)CC4)n3)[nH]c2c1", "cell viability": "1.03 ± 0.038"}
{"smiles": "Cn1c(N2CCCCS2(=O)=O)nc(C(=O)NCc2ccc(F)cc2)c(O)c1=O", "cell viability": "0.972 ± 0.028"}
{"smiles": "C[N+](C)(C)CC(O)CC(=O)[O-]", "note": "(racemic) [DL-Carnitine HCl]", "cell viability": "1.03 ± 0.03"}
{"smiles": "CCS(=O)(=O)N1CCN(c2ccc(Nc3ncc(C(N)=O)c(NC4CC4)n3)cc2)CC1", "cell viability": "0.8 ± 0.017"}
{"smiles": "C[N+](C)(C)C[C@H](O)CC(=O)[O-]", "note": "[L-carnitine]", "cell viability": "0.955 ± 0.09"}
{"smiles": "C=CC[N+]1([C@H]2C[C@H]3[C@@H]4CC[C@H]5C[C@H](O)[C@@H](N6CCOCC6)C[C@]5(C)[C@H]4CC[C@]3(C)[C@H]2OC(C)=O)CCCC1", "note": "[Rocuronium Bromide]", "cell viability": "0.997 ± 0.032"}
{"smiles": "Cc1ccc(C(=O)Cn2c3c(sc2=N)CCCC3)cc1", "note": "[Pifithrin-α (PFTα)]", "cell viability": "1.01 ± 0.031"}
{"smiles": "CC(C)(C)NC(=O)[C@H]1CC[C@H]2[C@@H]3CC[C@H]4NC(=O)C=C[C@]4(C)[C@H]3CC[C@]12C", "note": "[Finasteride]", "cell viability": "0.915 ± 0.033"}
{"smiles": "C=C1CC[C@H](O)C/C1=C/C=C1\\CCC[C@]2(C)[C@@H]([C@H](C)/C=C/[C@H](C)C(C)C)CC[C@@H]12", "note": "[Vitamin D2]", "cell viability": "0.992 ± 0.014"}
{"smiles": "Nc1nc(N)c2nc(-c3ccccc3)c(N)nc2n1", "note": "[Triamterene]", "cell viability": "0.999 ± 0.068"}
{"smiles": "COc1ccc(CCC(=O)Nc2nc3ccc(Cl)cc3s2)cc1OC", "cell viability": "1.02 ± 0.022"}
{"smiles": "C=C1C(=O)O[C@H]2[C@H]1CC/C(C)=C/CC[C@@]1(C)O[C@@H]21", "note": "[(-)-Parthenolide]", "cell viability": "0.828 ± 0.036"}
{"smiles": "CCCCOc1ccc(C(=O)CCN2CCCCC2)cc1", "note": "[Dyclonine HCl]", "cell viability": "1.07 ± 0.034"}
{"smiles": "CC(C)(C)CC(C)(C)c1ccc(OCCOCC[N+](C)(C)Cc2ccccc2)cc1", "note": "[Benzethonium Chloride]", "cell viability": "0.998 ± 0.012"}
{"smiles": "Cn1nnc2c(C(N)=O)ncn2c1=O", "note": "[Temozolomide]", "cell viability": "0.965 ± 0.018"}
{"smiles": "O=[N+]([O-])c1cn2c(n1)OC[C@@H](OCc1ccc(OC(F)(F)F)cc1)C2", "cell viability": "0.924 ± 0.075"}
{"smiles": "O=c1cc[nH]c(=O)[nH]1", "note": "[Uracil]", "cell viability": "1.08 ± 0.066"}
{"smiles": "COc1ccc(-c2cc(=O)c3c(OC)c(OC)c(OC)c(OC)c3o2)cc1OC", "note": "[Nobiletin]", "cell viability": "0.939 ± 0.076"}
{"smiles": "Cc1ccc(C(=O)Nc2cccc(C(F)(F)F)c2)cc1Nc1nc(-c2cccnc2)nc2c1cnn2C", "cell viability": "1.02 ± 0.016"}
{"smiles": "CCOC(=O)N1c2ccc(C(F)(F)F)cc2[C@@H](N(Cc2cc(C(F)(F)F)cc(C(F)(F)F)c2)C(=O)OC)C[C@H]1CC", "note": "[Torcetrapib]", "cell viability": "1.07 ± 0.026"}
